Measured values reported in article PMC4336329 (PLoS ONE, 2015).
Hit rate of the full screen: of about 310,000 compounds, about 2,200 (0.71%) showed an effect of 50% or more. Effects have a minus sign here. Some of the results follow.

These compounds were tested against human ether-à-go-go-related gene (hERG) potassium channel (human, UniProt Q12809) (assay: primary screen, population patch clamp on CHO cells stably expressing hERG).
human ether-à-go-go-related gene (hERG) potassium channel, sequence (Q12809 whole entry, looked up): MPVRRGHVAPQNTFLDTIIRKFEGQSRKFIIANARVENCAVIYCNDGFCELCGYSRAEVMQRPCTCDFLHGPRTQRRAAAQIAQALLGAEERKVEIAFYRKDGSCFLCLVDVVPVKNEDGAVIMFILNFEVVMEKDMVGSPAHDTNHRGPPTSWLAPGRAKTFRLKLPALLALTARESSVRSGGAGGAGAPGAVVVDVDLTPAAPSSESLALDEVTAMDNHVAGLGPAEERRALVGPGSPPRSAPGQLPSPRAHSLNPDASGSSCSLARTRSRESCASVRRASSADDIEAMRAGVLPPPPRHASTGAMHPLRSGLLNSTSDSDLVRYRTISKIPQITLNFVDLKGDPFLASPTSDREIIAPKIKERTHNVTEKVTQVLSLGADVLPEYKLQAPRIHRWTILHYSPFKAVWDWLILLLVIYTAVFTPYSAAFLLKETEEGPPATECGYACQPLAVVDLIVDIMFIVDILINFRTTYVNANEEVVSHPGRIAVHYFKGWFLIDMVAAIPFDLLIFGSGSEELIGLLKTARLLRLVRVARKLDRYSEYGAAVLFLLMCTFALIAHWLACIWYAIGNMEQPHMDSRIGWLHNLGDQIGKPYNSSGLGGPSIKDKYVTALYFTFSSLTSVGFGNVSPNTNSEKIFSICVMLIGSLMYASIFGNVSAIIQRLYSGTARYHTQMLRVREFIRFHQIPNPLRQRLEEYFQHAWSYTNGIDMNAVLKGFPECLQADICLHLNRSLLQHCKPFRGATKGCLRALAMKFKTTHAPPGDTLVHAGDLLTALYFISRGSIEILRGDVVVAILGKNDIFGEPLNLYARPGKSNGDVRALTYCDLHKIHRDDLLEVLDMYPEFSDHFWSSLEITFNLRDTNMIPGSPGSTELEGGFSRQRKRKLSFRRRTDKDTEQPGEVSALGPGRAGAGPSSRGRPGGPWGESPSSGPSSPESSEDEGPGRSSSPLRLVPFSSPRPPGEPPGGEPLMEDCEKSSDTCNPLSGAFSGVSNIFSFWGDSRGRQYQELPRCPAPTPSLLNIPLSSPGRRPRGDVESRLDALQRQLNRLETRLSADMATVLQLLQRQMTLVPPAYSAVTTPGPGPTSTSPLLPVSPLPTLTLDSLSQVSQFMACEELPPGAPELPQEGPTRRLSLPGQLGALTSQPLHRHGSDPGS

| SMILES | hERG current change (%, negative = inhibition) at 1uM [%] |
| --- | --- |
| CC(C)c1nc2sc3c(=O)[nH]c(=S)[nH]c3c2c2c1CCCC2 | 13.2 |
| Cl.OCCN1CCN(CC(O)COc2ccc(C34CC5CC(CC(C5)C3)C4)cc2)CC1 (stereo not shown) | 8.74 |
| O=c1c(Cc2ccc(F)cc2)c(O)ccn1Cc1cccc(Cl)c1 | 8.42 |
| COc1cccc(NC(=O)c2cc3ccccc3o/c2=N\O)c1 | 9.16 |
| O=C(CCc1nc(-c2ccc(Cl)cc2)no1)NC1CCCCC1 | 13.1 |
| CCN(CCCNC(=O)COc1cc(=O)n(C)c2ccccc12)c1ccccc1 | -12.6 |
| CC(C)CNC(=S)N(CCCO)Cc1cc2cc3c(cc2[nH]c1=O)OCCO3 | 16.1 |
| COc1ccc(Oc2coc3cc(OCC(=O)N4CCCCC4)ccc3c2=O)cc1 | 1.94 |
| COP(=O)(Cc1ccc(C#N)o1)OC | 9.22 |
| COc1cccc(NC(=O)NC2(C(=O)N3CCN(C)CC3)CCCCC2)c1 | 11.3 |
| O=C(CN1CCOCC1)Nc1ccc(Cl)cc1 | 6.88 |
| CCOC(=O)CCCCC(=O)c1[nH]c(=O)[nH]c1CSc1nc2ccccc2[nH]1 | 17.5 |
| CC(=O)Nc1sc2c(c1CN1CCN(c3ccc(F)cc3)CC1)CCCC2 | -2.89 |
| Cc1ccc(NC(=O)CC2=NC(=O)C(CC(=O)Nc3ccccc3C)S2)cc1 (stereo not shown) | 14.9 |
| COC(=O)CCN(C(=O)c1ccc(OC(C)=O)cc1)c1ccccn1 | 11 |
| O=C(O)c1cc(Br)ccc1NS(=O)(=O)c1cccc2nsnc12 | 17.4 |
| Nc1cc(N)nc(SCc2ccc(Cl)cc2)n1 | 10.8 |
| O=c1oc2ccccc2c(O)c1CN1CCCCC1 | 11.7 |
| O=[N+]([O-])c1ccc(C2CCCC/C2=N/OCc2ccc(F)cc2)c([N+](=O)[O-])c1 (stereo not shown) | 0.739 |
| CC(=O)N1N=C(c2cccc(NS(C)(=O)=O)c2)CC1c1ccc2c(c1)OCO2 (stereo not shown) | -0.789 |
| Cc1ccccc1C(=O)N1CCC(C(=O)N(CC(C)C)c2c(N)n(Cc3ccccc3)c(=O)[nH]c2=O)CC1 | 20.2 |
| CCOC(=O)c1ccc(NC(=S)N2CCN(c3ccccn3)CC2)cc1 | 12.4 |

| SMILES | hERG current change (%, negative = inhibition) at 1uM [%] |
| --- | --- |
| Cc1ccc(CN2CCN(/N=C/c3ccc(C(=O)O)cc3)CC2)c(C)c1 | 7.71 |
| CC(=O)c1cccc(CN2CCC(C(=O)Nc3cccc(-c4ccn[nH]4)c3)CC2)c1 | 7.16 |
| CC1CCN(C(=O)COC(=O)c2cc3ccccc3cc2O)CC1 | 10.5 |
| NS(=O)(=O)c1ccc(NC(=O)COC(=O)CCC2CCCC2)cc1 | 14 |
| CSc1nc2ccc(NC(=O)c3nn(C(C)C)c(=O)c4ccccc34)cc2s1 | 8.78 |
| Cc1n(-c2ccccc2)c2ccc(Cl)cc2[n+]1CCO.[I-] | 14.4 |
| C=CCOc1cccc(/C=N/NC(=O)C(OC)c2ccccc2)c1 (stereo not shown) | 9.35 |
| CCCCNC(=O)O[C@@H]1C[C@@H]2CCN3C(=O)CCC[C@H]([C@H]1CC)[C@H]23 | -4.75 |
| O=C(Nc1ccncc1)c1cc(S(=O)(=O)N2CCCCC2)ccc1Cl | -6.73 |
| O=C(CSc1ncc(-c2ccccc2)[nH]1)Nc1ccccc1F | 10.3 |
| CC(C)(C)NC(=O)C(c1ccncc1)N(C(=O)Cn1nnc(-c2ccc(F)cc2)n1)c1cccc(F)c1 (stereo not shown) | 10.1 |
| Cc1cc(C)n(/N=C/c2c[nH]c3ccccc23)c(=O)c1C#N | 14.8 |
| O=C(O)COc1ccc(-c2nc(-c3ccccc3)c(-c3ccccc3)[nH]2)cc1 | 13.7 |
| O=C(CSC(=S)N1CCCCC1)Nc1ncc2c(n1)CCCC2=O | 13.7 |
| CCOC(=O)c1cc(-c2ccccc2)nn1CC1CC(c2cccnc2)=NO1 (stereo not shown) | 3.98 |
| CNCC(O)c1cc(OCc2ccccc2)c(OCc2ccccc2)cc1F (stereo not shown) | 13.1 |
| Cn1c(SCc2cc(=O)[nH]c3ccccc23)nnc1-c1ccco1 | 11.4 |
| COc1cccc(CNS(=O)(=O)c2ccc(N3CCCC3=O)cc2)c1 | 1.94 |
| c1ccc(C2OCCN3CCCCC23)cc1 (stereo not shown) | 2.18 |
| Fc1ccc(-c2csc(=S)[nH]2)cc1 | 8.7 |
| O=C(NC1CCCC1)c1cc(-c2ccc(Cl)c(Cl)c2)on1 | 12.5 |
| CCN(CC)c1ccc(/C=N/NC(=O)OC)c(O)c1 | 5.91 |

| SMILES | hERG current change (%, negative = inhibition) at 1uM [%] |
| --- | --- |
| COc1ccc([N+](=O)[O-])cc1N(CC(=O)N1CCOCC1)S(C)(=O)=O | 16.6 |
| Cc1c(Cc2ccccc2)sc(/N=C/c2ccc3ccccc3c2)c1C(N)=O | 11.3 |
| CS(=O)(=O)Nc1ccccc1C(=O)NCCSc1ccccc1 | 12.2 |
| CCOC(=O)N1CCC(N(CCCOC)C(=O)Nc2ccc(CC)cc2)CC1 | -4.18 |
| CCCCn1nc2cc(C(=O)NCC3CC3)ccc2c1OCC | -11 |
| CCCOc1cccc(C(=O)NCCCNC(=O)c2ccccn2)c1 | 16.2 |
| O=C(Nc1cc2c(cc1Br)OCCO2)c1ccco1 | 25.6 |
| COc1c(Cl)cc(C(=O)Nc2ccccc2-c2ccccc2)cc1Cl | 10.6 |
| CC(=O)c1cnc2cc(-c3ccc(C)cc3)nn2c1C | 9.07 |
| CCn1c(SCC(=O)Nc2ccc(F)cc2F)nc2c(c1=O)SCC2 | 5.88 |
| CC(Oc1ccc(Cl)cc1Cl)C(=O)NC1=NN(c2ccccc2)C(=O)C1 (stereo not shown) | -12.9 |
| COCC1CCCCN1C(=O)c1ccc(OC2CCN(Cc3ccccn3)CC2)cc1 (stereo not shown) | 4.31 |
| Cc1cc(C)c2nc(N3CCN(C(=O)c4cccs4)CC3)sc2c1 | -1.69 |
| CCC[C@@H](CNC)NC[C@H](Cc1ccccc1)NCCCCc1ccccc1 | 8.73 |
| Cc1cccn2c(=O)c(/C=C(\C#N)C(=O)NCc3ccccc3)c(N3CCC(C(N)=O)CC3)nc12 | 7.42 |
| CCC(=O)N1CCCc2cc(S(=O)(=O)N3CCN(c4ccccc4F)CC3)ccc21 | 5.39 |
| COC(F)(C(=O)Nc1ccc2c(c1)C(=O)NC2=O)C(F)(F)F (stereo not shown) | -1.02 |
| Cc1cc(C(=O)Nc2c(C)nn(Cc3c(Cl)cccc3Cl)c2C)no1 | 6.34 |
| CCc1cccc(CC)c1NC(=O)COC(=O)Cc1ccsc1 | 16.4 |
| Cc1cccc(NC(=O)CCSc2ccccc2)c1C | 6.22 |
| O=C(Nc1ccc(-c2cn3ccsc3n2)cc1)c1ccc(F)c(S(=O)(=O)N2CCOCC2)c1 | 0.396 |
| CCOC(=O)C(CC)n1cnc2c(cnn2-c2ccc(Cl)cc2)c1=O (stereo not shown) | 5.31 |

| SMILES | hERG current change (%, negative = inhibition) at 1uM [%] |
| --- | --- |
| CCn1c(SCC(=O)N2CCCC2)nc2c(c1=O)SC(C)C2 (stereo not shown) | 14.5 |
| COc1cc(/C=C2\SC(=Nc3ccc(N4CCOCC4)cc3)N(C)C2=O)ccc1OC(C)C(=O)O (stereo not shown) | 9.3 |
| Cc1onc(-c2ccccc2Cl)c1C(=O)NCc1nc(-c2ccc(C(F)(F)F)cc2)no1 | 20.8 |
| CCOC(=O)C(NCCc1ccccc1)(NC(C)=O)C(F)(F)F (stereo not shown) | 7.74 |
| CS(=O)(=O)N1CCc2cc(-c3csc(NC(=O)Cc4ccccc4)n3)ccc21 | 3.59 |
| Cc1onc(-c2c(F)cccc2Cl)c1-c1nnc(-c2ccc(C(F)(F)F)cc2)o1 | 2.21 |
| O=C(CN(CCc1ccccc1)C(=O)CNS(=O)(=O)c1ccc(F)cc1)NCC1CCCO1 (stereo not shown) | 8.08 |
| CC1(C)COC(c2cccc(C3=NC(C)(C)CO3)n2)=N1 | 13.1 |
| Cc1ccc(C)c(SCC(=O)NNC(=O)c2ccccc2)c1 | 9.22 |
| COc1ccccc1C1CCN(Cc2cccc(C(=O)N3CCC(O)CC3)c2)CC1 | 16.4 |
| O=C(CSc1nnc(-c2ccccn2)n1Cc1ccco1)Nc1ccc2c(c1)OCO2 | 1.69 |
| CCC(C)c1ccc(OCc2ccc(C(=O)O)o2)cc1 (stereo not shown) | 18.2 |
| CC(C(=O)c1ccc(-c2ccccc2)cc1)[n+]1cccc(C(N)=O)c1.[Br-] (stereo not shown) | 15.5 |
| CCOc1ccccc1NC(=O)c1cc(C(=O)c2cc(OC)ccc2O)coc1=N | 8.22 |
| CC(/C=N/N1CCN(Cc2ccccc2)CC1)=C\c1ccccc1 | 19.4 |
| CCN(CC)C(=O)C1CCCc2c1[nH]c1ccc(Cl)cc21 (stereo not shown) | 7.07 |
| CN(C)c1nc(N)nc(Nc2ccccc2C#N)n1 | 11.6 |
| Cc1cc(C(C)(C)C)oc1C(=O)N(CC(=O)NC1CCCC1)Cc1ccc(F)cc1 | 10.6 |
| CCN1CCN(c2ncnc3c2c(-c2ccccc2)cn3-c2ccc(F)cc2)CC1 | -44 |
| Cc1ccc2sc(NNC(=O)C3COc4ccccc4O3)nc2c1C (stereo not shown) | 9.9 |
| Cc1nnc2sc(SCC(=O)N3CCC(C)CC3)nn2c1=O | -1.71 |
| COc1cc2c(cc1OC)-c1cc(Nc3ccccc3C)nc(=O)n1CC2 | 17.5 |
